The source gives no read counts; variants with many changes may rest on few reads.
B1: LINE1-full (parent)
chain: UACGUAGGUGGUUUUCCCCUGAUAGUGCUAAGGGGGCCUGGAAGUUUGGACUGGGCAGAGCUCAACACAGCGUGGCAAAGUGGCUGUGGCUAGACUGCCUCUCUGGAUUCCUCGUCACUCAGCAGGGCAUCUCUGAGAGAAAUGCC

Variants of: B1
Assay: self-cleavage, relative activity (ratio to wild type); higher = more cleavage; in vitro, sequencing; the parent is a self-cleaving ribozyme

Row | Variant | self-cleavage
1 | A30U A67C U104A | 0.1
2 | U29C A140G A141G | 1.4
3 | U29C A67G U115C G122A | 0
4 | A31G A43G A92G C113U | 0.14
5 | A30G U45C A69G | 0.57
6 | G32A U85C U112A | 0.12
7 | G32A U45C A69U | 0.05
8 | A30U A57G A141G | 0.69
9 | U29C G48A U100C | 1.13
10 | A31G U47C U87C | 0.63
11 | U29C U47C A69G U87A U132C U134A | 0.77
12 | A30G A67U U134C A138G | 0.28
13 | G32A U73C U81A | 2.53
14 | A31U U112C A129G | 1.4
15 | A31G A94G U100A U132C | 0
16 | A30U A94G U115C A138G | 0
17 | U29C U62C A124U | 0.1
18 | A30G U46C U112C | 0.77
19 | A31G A43G U46C | 0.66
20 | U29C U39A A94U U104C | 0.25
21 | A31G U115A G122A | 1.21
22 | A31U U96A A121U | 0.09
23 | U29C U45C U81A | 1.37
24 | A31U U47C U52C | 2.22

Row | Variant | self-cleavage
25 | A30U A69U A140U | 0.04
26 | A30U A69U A140G | 0.05
27 | A31G U39A G88C | 0.23
28 | A30U U85A A136G | 0.24
29 | A30U U45C U81C | 0
30 | G32C G53U U81A | 1.15
31 | U29C U39C U81A U112C C113U | 0.86
32 | A31U U39C A78G | 0.53
33 | A31C A43G A64G U91C | 0
34 | A31G G35A G36U U109C | 1.55
35 | A31G G83A U85C C146U | 0.13
36 | U29G G49A U52A U62A A65G A69G U134G | 0
37 | A30U A78G U143A | 0.8
38 | A31U U102C A140G | 1.25
39 | G32A C38U A67G U115C | 0.38
40 | G32A U104G A142U | 0.72
41 | A30G U62G C63U U85C A124G | 0.12
42 | G32A A57U C66A | 0.08
43 | A30G A64U U112C A117G A142G | 0
44 | A30G U91C A94U C98A G125A A140G | 0.04
45 | A30G A65G A140G U143A | 0
46 | G32A A42G A65G | 0.07
47 | A31U A59G A78G U134C | 0.2
48 | A30G A121G A136G | 1.15

Row | Variant | self-cleavage
49 | A30G U52A A141G | 1.16
50 | A31U A77G A79G U87A | 0.32
51 | G32U A77G A92G A136G | 0.3
52 | A30U A77G U85A U91C | 0
53 | G32A A50G U85C U87C U132C A136G | 0
54 | A30G U52A C76U U102C | 1.19
55 | A30U A43G U46A U130C | 1.12
56 | A31G A79G G122A A136G G137A | 0.29
57 | A30U A77U A107G | 0.88
58 | U29C G105A U119C | 1.79
59 | G32A A67U U102G C120U A124G A142G | 0
60 | A31C G55C A57C C71U A117G | 0.23
61 | A31U A59U A67G G80A U87C A129G | 2.3
62 | U29C C113U A141G | 1.43
63 | A31G U39A A121G A141G | 2.6
64 | G32A A43G C56U U130C | 0.14
65 | A30G A77U U108C | 1.63
66 | U29C A121G A140G | 0
67 | A30G A43G U45A U132C G137A | 0
68 | U29C U47A U119C | 1.64
69 | A31U A59G U108C | 0
70 | A30C U96C A107G A140G | 0
71 | A30G A124U C145U | 0.93
72 | G32A A43G U85C | 0.11

Row | Variant | self-cleavage
73 | A30G U46A G82A | 1.56
74 | A31C U46C U132C | 0.63
75 | A31G U104A A121G U132C | 0.98
76 | A31G G34A G106A U112C | 1.38
77 | A31U U119C A136G | 2.11
78 | A31G A92G A124G | 0
79 | U29C U100A U130C | 1.55
80 | A31G U39C A64U | 0.42
81 | G32U A59G A92G C103A G122A | 0.03
82 | G32A U87A C111U | 0.02
83 | A30U G88A U119C C128U A138G | 0.13
84 | A30U A79G A107G | 1.62
85 | A30U U39C G86U | 0.11
86 | U29C A69G G127U | 0.63
87 | G33A A64G U134C | 0.18
88 | G32U A42G A117U | 1.45
89 | A31G A50G A65C U132C G139U | 0
90 | A30U U39C A136G | 1.47
91 | A31U U143A C146A | 0.99
92 | U29C G33C A107G A136U | 1.63
93 | A30G U100C A136G U143C | 1.84
94 | A31U A43G C90U | 0.03
95 | A30U A77G A140G | 1.51
96 | A30U U104A A140G A142C | 0.69

Row | Variant | self-cleavage
97 | G32U G35A A129U | 0.92
98 | A31G A65G U81A | 0.15
99 | A31G G35U U100G A142G | 1.53
100 | U29C A124G A141G | 1.15
101 | A30U A141G A142G | 0.92
102 | A31G G33A A43G A79G | 0.31
103 | G32U U39C A79G U143A | 2.02
104 | A31G G35A U87C A140U | 0.22
105 | A31G A50G C99U U108C A136G | 0.38
106 | A31U U62C U96C | 0
107 | G32A U45A U143C | 1.83
108 | A30C A57G A79G U85C | 0
109 | A31U C123A U143C | 1.01
110 | A30C A67G C103A C110U | 0.3
111 | A31G A78G A121G | 0.51
112 | G32A U39C U73A U119G | 0.79
113 | A31U A43G U96C A141G | 0.11
114 | A30G G41A A65G | 0.18
115 | A30C U39G A42G U73A U115A | 1.37
116 | U29C U46A G58A | 0
117 | A31U A59U A65G U109C A142U | 0
118 | A30U A50G U85C | 0
119 | U29C C98U G144A | 0.77
120 | A31U A59U A129U | 1.11

Row | Variant | self-cleavage
121 | U29C U81A A141G | 2.16
122 | A31G U46C A117G | 0.92
123 | U29C U85A U108C | 0.23
124 | A31U A43G U81G A138G | 1.21
125 | U29C U104C U134C | 2.9
126 | A30G U47C A136U A142G | 0.74
127 | A30U C56U U96C U109C | 0.12
128 | G32A G40U A50G | 1.03
129 | A31G G49A U108C | 1.15
130 | A30G U85C A136G A142G | 0
131 | U29C U47C U112C A141C | 1.04
132 | A30G C63U G80U | 0.58
133 | A31U G32A C120U A136G | 1.11
134 | A31U A79G U112A | 1.11
135 | A31U A57G A67U A77G | 0
136 | A30G C76A U85C | 1.14
137 | A31U U96C C99U A129G | 0.15
138 | A31G G55C U62C | 0.03
139 | A31G C37U A79G U91A A136U | 0.49
140 | G32A A59G G114A | 0.05
141 | A30G A64G U134A | 0.3
142 | A30G G36A U134C | 0.63
143 | A30U A59G A69U A124G U134A | 0.18
144 | A30U U96C C145G | 0.73

Row | Variant | self-cleavage
145 | A30G A117U U130A | 0.52
146 | A30G U47C A79U A136U | 0.29
147 | A31C A117G U130C | 0
148 | U29C G54U G126A G144A | 1.02
149 | G32C A64G G105A | 0.37
150 | U29C G53A A77U | 0.43
151 | A31U A79G U115A A141G | 1.04
152 | G32A A59G A142G | 0
153 | A30G G35A A59G A79G | 0
154 | A30G A57G U62A A121U A136U | 0.08
155 | U29C G35A A138U | 1.35
156 | A30C G35A A65G U119A G126A | 0.03
157 | G32A G40A U73C | 1.32
158 | A31G U45C U52C U73A | 1.84
159 | G32C A94C A129G | 0
160 | A31U U52C A78U U100C | 2.76
161 | A30G G32A U81A A107G U112C A138U | 0
162 | A30G U46C G72U U96A | 0.1
163 | A30G A65G C110A U119G U132A | 0
164 | A31G U47C U62C U85A | 0.17
165 | A30G A94C A124G | 0.61
166 | A31C U73G A141G | 0
167 | A31U U134C A138G | 2.16
